From PubChem BioAssay AID1159614 (National Center for Advancing Translational Sciences (NCATS), 2016) come the findings set out here.

Each structure is given as a SMILES string. Hit rate of the full screen: of about 45,000 compounds, about 65 (0.1%) were called active. The call rests on the fitted dose curve; in most records, active means well fitted activation curve with a large enough effect; inconclusive means small, poorly fitted or top-dose-only effect; inactive means no such curve, though single readings can be large or run the other way. Some of the results follow.

In this assay the target is Galactocerebrosidase (Homo sapiens) (UniProt P54803). Briefly: A Novel Cell-Based Assay to Identify Small Molecules for B -Galactocerebrosidase. Further: 0% is about no effect; nearly all actives have a fitted effect of over 65% in size. The following applies: 145M-Twi-hGALC-G270D cells (Twitcher mouse brain line with human GALC G270D), HMU-beta-Gal fluorescence, 48 h; series mostly up to 57.5 µM; activation: at the top concentration. An outline of the steps: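 Mutant human GALC (G270D), stably expressed in a Twitcher mouse brain cell line lacking endogenous GALC, is measured in live-treated cells via 6-hexadecanoylamino-4-methylumbelliferyl-β-galactoside hydrolysis (0.1 mM final, pH 5.2) with fluorescent detection.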
Chain of UniProt P54803 (P54803 whole entry, looked up): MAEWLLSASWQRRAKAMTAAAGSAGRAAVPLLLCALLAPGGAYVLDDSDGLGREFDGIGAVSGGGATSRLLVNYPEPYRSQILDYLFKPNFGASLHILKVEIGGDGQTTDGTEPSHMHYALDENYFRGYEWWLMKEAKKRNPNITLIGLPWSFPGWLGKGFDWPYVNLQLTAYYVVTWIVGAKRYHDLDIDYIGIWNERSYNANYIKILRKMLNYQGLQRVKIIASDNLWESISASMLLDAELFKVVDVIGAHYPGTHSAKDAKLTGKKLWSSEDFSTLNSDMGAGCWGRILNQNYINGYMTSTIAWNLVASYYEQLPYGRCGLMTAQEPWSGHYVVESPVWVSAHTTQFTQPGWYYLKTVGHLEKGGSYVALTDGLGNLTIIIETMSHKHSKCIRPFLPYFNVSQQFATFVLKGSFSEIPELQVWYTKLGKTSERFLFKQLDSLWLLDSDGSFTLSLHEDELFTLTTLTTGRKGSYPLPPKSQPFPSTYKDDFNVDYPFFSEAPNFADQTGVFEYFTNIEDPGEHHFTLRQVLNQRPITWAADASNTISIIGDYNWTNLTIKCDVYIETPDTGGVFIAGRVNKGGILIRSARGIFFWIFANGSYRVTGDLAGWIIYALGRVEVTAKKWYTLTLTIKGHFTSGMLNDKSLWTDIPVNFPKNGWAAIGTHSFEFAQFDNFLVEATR
`Cc1ccc(C(=O)Nc2ccc(C(=O)OCc3cc(=O)n4nc(C5CC5)sc4n3)cc2)cc1`: the “activation” value is inactive: 7.75%.
The same measure, in the same setting: for `CC(=O)Nc1cccc(NC(=O)CSc2cn(CC(=O)N(C(C)C)C(C)C)c3ccccc23)c1` the value was inactive: -17.2%; for `CCOc1cc(CNC(=O)CCCn2c(=O)c3cccn3c3cccnc32)cc(OCC)c1OCC`, inactive: 0.178%.
Still for that read-out and setting: for `CCc1ccccc1NC(=O)CSc1ncc(S(=O)(=O)c2ccccc2)c(N)n1` the value was inactive: -1.19%.
The same measure, in the same setting: for `COc1ccc(CCNC(=O)c2cc(Nc3cc(C)cc(C)c3)nc3ccccc23)cc1OC` the value was inactive: -8.36%; for `Cc1cccc(N(CC(=O)NCCSCc2ccc(Cl)cc2)S(C)(=O)=O)c1C`, inactive: -7.65%; for `COc1cccc(CNC(=O)C2CCN(c3nn4c(=O)cc(C)nc4s3)CC2)c1`, inactive: -4.32%.
Consider `CCN(CC)CCOC(=O)C1(c2ccccc2)CCCC1`, for which the “activation” value is inactive: -12.3%.
The same measure, in the same setting: with `O=C(NCCCN1CCN(c2cccc(Cl)c2)CC1)Nc1ccccc1C(F)(F)F` the figure was inactive: -3.45%; with `O=C(NC1CC(=O)N(c2ccccc2)C1)c1ccc(Br)o1` (stereo not given), inactive: -4.68%.
On the same count and under the same terms, with `COc1ccccc1Cn1c(CNS(=O)(=O)c2ccccc2Cl)nc2cccnc21` the figure was inactive: -4.78%; with `CC(=O)c1cccc(NC(=O)c2cccn2-c2nnc(N3CCCCC3)s2)c1`, inactive: -23.1%.
For `CCOc1ccc(NC(=O)c2cc3c(n(-c4ccc(OC)cc4)c2=O)CC(C)(C)CC3=O)cc1`, the “activation” value is inactive: -10.2%.
Same read-out and setting: with `COc1ccc(NC(=O)CN2C(=O)COc3ccc(S(=O)(=O)Nc4ccccc4)cc32)cc1OC` the figure was inactive: -7.15%; with `O=C(COCc1cc(-c2cccs2)on1)Nc1cccc(Cl)c1Cl`, inactive: -9.49%; with `Cc1c(Cl)cccc1Nc1nn2c(=O)c3ccc(C(=O)NCCc4ccccc4)cc3nc2s1`, inactive: -14.7%.
As for `CCN(c1cccc(C)c1)S(=O)(=O)c1ccc2c(c1)NC(=O)CCS2`, the “activation” value is inactive: 13.2%.
`CCOC(=O)c1ccc2c(c1)N(CC(=O)Nc1ccc(C)cc1C)C(=O)c1ccccc1S2`: the “activation” value was inactive: 1.19%.
Still for that read-out and setting: with `CCN(CC)C(=O)Cn1cc(SCC(=O)Nc2ccccc2F)c2ccccc21` the figure was inactive: -14.7%; with `COc1ccc(NC(=O)c2nnn(Cc3nc(-c4cc(OC)c(OC)c(OC)c4)oc3C)c2C)cc1`, inactive: -5.86%.
Still for that read-out and setting: with `CCOC(=O)Cn1c(=O)oc2cc(S(=O)(=O)N3CCN(c4ccccc4F)CC3)ccc21` the figure was inactive: -17%; with `CSc1cccc(NC(=O)C2CCN(c3ncnc4c3nc3n4CCCCC3)CC2)c1`, inactive: 3.97%.
The same measure, in the same setting: with `O=C(c1ccc(F)cc1)N1CCC(c2nc3ccccc3o2)CC1` the figure was inactive: -10.1%; with `O=C(NC1CCCCCC1)c1cc2c(Cl)nc3ccccc3c2s1`, inactive: -1.68%.
For `CCOc1ccccc1NC(=O)C(NS(=O)(=O)c1ccc2c(c1)CCC(=O)N2)c1ccccc1` (stereo not given), the “activation” value was inactive: -10.9%.
On the same count and under the same terms, for `N=C(N)N` the value was inactive: -9.74%; for `CC(C)NC(=O)CC(=O)Nc1ccc2nc3n(c(=O)c2c1)CCCCC3`, inactive: -9.64%.
Same read-out and setting: with `COc1ccc(-c2nc(C(N)=O)c3c(n2)n(-c2ccccc2OC)c(=O)n3C)c(OC)c1` the figure was inactive: -2.66%; with `O=C(c1ccc2c(c1)N(Cc1ccc(Cl)cc1)C(=O)c1ccccc1S2=O)N1CCN(c2ccccc2F)CC1` (stereo not given), inactive: -9.79%; with `CCOC(=O)c1ccc(NC(=O)C2=C(C)Nc3nc(SCc4ccc(Cl)cc4)nn3C2c2ccc(C)cc2)cc1` (stereo not given), inactive: -9.71%.
Regarding `CCCCOc1ccc(C(=O)N2CCC(c3nc4ccccc4o3)CC2)cc1`, the “activation” value was inactive: -19%.
On the same count and under the same terms, for `Cc1nn(C(=O)COc2ccccc2)c(C)c1Sc1ccccc1` the value was inactive: -13.5%; for `CCOc1ccc(CC(=O)NCCc2csc(-c3ccc(C(F)(F)F)cc3)n2)cc1`, inactive: -12.2%; for `CC(C)(C)c1ccc(Oc2nc3ccccn3c(=O)c2/C=C(\C#N)c2nc3ccccc3[nH]2)cc1`, inactive: -29%.
Still for that read-out and setting: for `COc1ccc(CNC(=O)c2ccc3c(c2)N(C)C(=O)C2CCCCN32)cc1OC` (stereo not given) the value was inactive: -20.2%.
The same measure, in the same setting: for `O=C(CCC(=O)N1CC2CCCN2c2ccccc21)NCc1ccccc1` (stereo not given) the value was inactive: -20.1%.
Take `CCOC(=O)c1ccc(NC(=O)CCn2c(=O)c3cccn3c3cccnc32)cc1`: the “activation” value is inactive: -10.9%.
Consider `O=C(Nc1ccc(F)cc1F)c1cc(-c2ccc(Cl)cc2)on1`, for which the “activation” value was inactive: -9.38%.
On the same count and under the same terms, for `CCN(CC)C(=O)Cn1c(=O)n(-c2ccc(C)c(C)c2)c(=O)c2c3c(sc21)CCCCC3` the value was inactive: -10.3%; for `CCc1cccc(NS(=O)(=O)c2ccc(-n3cccn3)cc2)c1`, inactive: -36.6%.
Same read-out and setting: with `CCCCS(=O)(=O)CC(O)CSc1nc(-c2ccc(C)cc2)cc(-c2ccccc2)c1C#N` (stereo not given) the figure was inactive: -10.2%; with `COc1cccc(C(=O)Nc2cccc(-c3cn4ccsc4n3)c2)c1OC`, inactive: -32.5%.
On the same count and under the same terms, for `Cc1ccccc1-c1noc(-c2cccnc2N2CCN(c3ccccc3)CC2)n1` the value was inactive: 1.91%; for `Cc1cccc(-c2nc3c4ccccc4n(Cc4cccc(Cl)c4)c(=O)n3n2)c1`, inactive: -1.46%.
On to `O=C(CN1C(=O)COc2ccc(S(=O)(=O)N3CCOCC3)cc21)N1CCN(c2cccc(Cl)c2)CC1`, for which the “activation” value is inactive: 1.58%.
The same measure, in the same setting: with `COc1ccc(NC(=O)c2ccc3c(SCC(=O)O)c4c(nc3c2)CCCC4)c(OC)c1` the figure was inactive: -5.05%.
Still for that read-out and setting: with `CCc1ccc(NC(=O)CSc2ccc(-c3ccccn3)nn2)cc1` the figure was inactive: 13%; with `O=C(NCCCN1CCN(c2ccc(F)cc2)CC1)c1cnn(-c2ccc(F)cc2)c1-n1cccc1`, inactive: -22.8%.
Still for that read-out and setting: with `CN(C)CCC=C1c2ccccc2CCc2ccccc21` the figure was inactive: -15.8%; with `Cc1ccnc2c1NC(=O)c1cccnc1N2C1CC1`, inactive: -21%.
Regarding `O=S(=O)(c1ccc(-c2cc(C(F)(F)F)on2)s1)N1CCN(c2ccc(F)cc2)CC1`, the “activation” value was inactive: -2.98%.
On the same count and under the same terms, with `Cc1cc(Br)ccc1NC(=O)Cn1cc(S(=O)(=O)N2CCN(c3ccccc3F)CC2)c2ccccc2c1=O` the figure was inactive: -7.22%; with `COc1ccc(NC(=O)C2CCCN(c3ncnc4c3nc3n4CCCCC3)C2)c(OC)c1` (stereo not given), inactive: -20.6%; with `COc1cc(NS(=O)(=O)c2cc3c(cc2C)N(C)CCO3)cc(OC)c1OC`, inactive: -0.786%.
As to `C#CCSc1nc(-c2ccccc2)cc(-c2ccccc2)c1C#N`, the “activation” value is inactive: -13.1%.
Still for that read-out and setting: for `Cc1ccc(-n2c3c(cc(-c4nc(-c5ccc(Cl)cc5)cs4)c2=O)C(=O)CC(C)(C)C3)cc1C` the value was inactive: -12.8%; for `CCn1cc(C(=O)N2CCN(c3cccc(Cl)c3)CC2)c2cc(OC)c(OC)cc2c1=O`, inactive: -12.7%.
In the case of `Cc1ccc(CN2CCc3nc(Nc4ccc5c(c4)OCCO5)ncc3C2)cc1`, the “activation” value is inactive: -9.28%.
On the same count and under the same terms, for `CCOc1ccc(CNC(=O)c2cnc3sc(N4CCOCC4)nn3c2=O)cc1` the value was inactive: 4.6%.
In the case of `CCS(=O)(=O)N1CCc2cc(C(=O)Nc3ccc(C(=O)OC)cc3)ccc21`, the “activation” value was inactive: -11.5%.
`C#C[C@]1(O)CC[C@H]2[C@@H]3CCc4cc(OC5CCCC5)ccc4[C@H]3CC[C@@]21C`: the “activation” value is inactive: -17.2%.
Still for that read-out and setting: with `CC1=C(c2ccc(C(C)C)cc2)S(=O)(=O)NC1=NCCCN1CCN(c2ccccc2F)CC1` the figure was inactive: -23.2%.
Regarding `Cc1ccc(C)c(N2CCN(C(=O)CCc3nnc4n(CC(C)C)c(=O)c5ccccc5n34)CC2)c1`, the “activation” value is inactive: -13.9%.
On to `Cc1[nH]c(=O)c(C#N)cc1-c1ccncc1`, for which the Potency result was “inactive”.
Consider `CCSc1oc(-c2ccco2)nc1S(=O)(=O)c1ccc(Br)cc1`, for which the “activation” value was inactive: 3.69%.
On the same count and under the same terms, for `CC(=O)c1ccc(Nc2nc3c(S(=O)(=O)c4ccccc4)nnn3c3ccc(Cl)cc23)cc1` the value was inactive: -20.4%; for `Cc1ccc(NC(=O)Cn2c(=O)c3ccccc3n3nncc23)cc1`, inactive: -4.67%; for `Cc1ccc2nc(-c3ccc(O)cc3)c(Nc3ccc(Cl)cc3)n2c1`, inactive: -16.4%.
Still for that read-out and setting: with `CCC(=O)N1CCc2cc(S(=O)(=O)NCCC(=O)Nc3cc(C)ccc3OC)ccc21` the figure was inactive: -17.2%; with `COc1ccccc1-c1cc2nc(C)c(CCC(=O)O)c(C)n2n1`, inactive: -11.2%.
Turning to `COc1ccccc1NC(=O)Cn1c(=O)n(CCC(=O)NCC2CCCO2)c(=O)c2cc(OC)c(OC)cc21` (stereo not given), the “activation” value is inactive: -0.331%.
On the same count and under the same terms, for `CCCc1cc(=O)[nH]c(SCC(=O)N2CCN(c3ccccc3OC)CC2)n1` the value was inactive: -8.68%; for `COc1cc(NC(=O)c2cc3c(s2)-c2ccccc2OC3)cc(OC)c1OC`, inactive: -31.7%; for `CCCN(CCC)C(=O)Cn1c(=O)n(-c2ccc(Cl)cc2)c(=O)c2c3c(sc21)CCCCC3`, inactive: -5.06%.
On the same count and under the same terms, for `Cc1ccc(-c2nn(-c3ccc(F)cc3)c3c2cnc2cc(F)c(F)cc23)cc1` the value was inactive: -8.1%; for `COC(=O)CCNC(=O)NC(CCC(C)C)c1c(-n2cccc2)sc2c1CCN(C)C2` (stereo not given), inactive: -15.6%.
On the same count and under the same terms, with `CCN1c2ccccc2-c2nc(SCC(=O)NCc3ccccc3)ncc2S1(=O)=O` the figure was inactive: -13.3%; with `Cc1ccc(NC(=O)Cn2cc(S(=O)(=O)N3CCCC3)c(S(=O)(=O)N3CCCC3)c2)cc1F`, inactive: -7.36%.
Take `Cc1ccccc1C(=O)Nc1ccc(OCc2cc(=O)n3ccccc3n2)cc1`: the “activation” value was inactive: -16.6%.
The same measure, in the same setting: with `CC(=O)c1cccc(Nc2nc(-c3cccc(C)c3)nc3ccccc23)c1` the figure was inactive: -0.977%; with `COc1cccc(C(=O)NCC(c2ccc(N(C)C)cc2)N2CCc3ccccc32)c1` (stereo not given), inactive: -14.5%; with `COc1cccc(NC(=O)CCN2CCN(c3ccccc3)CC2)c1`, inactive: -16.3%.
Same read-out and setting: for `Cc1ccc(C)c(S(=O)(=O)c2nnn3c2nc(Nc2ccc(C)c(C)c2)c2ccccc23)c1` the value was inactive: -3.42%; for `Cc1ccc(CCNC(=O)c2c[nH]c3ccc(S(=O)(=O)Nc4ccc(C)cc4C)cc3c2=O)cc1`, inactive: -21.6%; for `Cc1c(Cl)cccc1NC(=O)C(CCS(C)(=O)=O)N1Cc2ccccc2C1=O` (stereo not given), inactive: -18.3%.
Same read-out and setting: for `Cc1cccc(NC(=O)C(=O)NCCc2sc(-c3ccccc3)nc2C)c1C` the value was inactive: -15.1%.
Take `COc1ccc(-c2cn3c(n2)sc2cc(C(=O)NC4CCCCCC4)ccc23)cc1`: the “activation” value is inactive: -10.6%.
With `CCS(=O)(=O)N1CC(=O)N(c2cc(C)ccc2C)C(C)(C(=O)NC2CCCCC2)C1` (stereo not given), the “activation” value is inactive: -9.53%.
Take `Cc1ccc(Cl)cc1NC(=O)N1CCC2(CC1)Oc1ccccc1C(=O)N2Cc1ccccc1F`: the “activation” value was inactive: -3.88%.
Same read-out and setting: with `COc1ccc(-n2nnc(-c3nsc(NC(=O)c4cccs4)n3)c2C)cc1OC` the figure was inactive: -19.9%.
Still for that read-out and setting: for `CC1CCCN(c2c(S(=O)(=O)c3ccccc3)cnc3ccc(Cl)cc23)C1` (stereo not given) the value was inactive: -0.0262%; for `CC(CNC(=O)c1cc(-c2ccccc2)n[nH]1)c1ccccc1` (stereo not given), inactive: -13.1%.
The same measure, in the same setting: with `Cc1ccc(S(=O)(=O)c2c(Nc3cc(C)ccc3C)sc(C(=O)c3ccc4c(c3)OCO4)c2N)cc1` the figure was inactive: -28.7%; with `CC(=O)c1c(C)oc2ccc(N(C(=O)Oc3ccccc3)S(=O)(=O)c3ccccc3)cc12`, inactive: -23.6%; with `CCc1ccc(NC(=O)C(NS(=O)(=O)c2cccc3nsnc23)c2ccccc2)cc1` (stereo not given), inactive: -17.7%.
